Target: T1, human hsc70 (immobilised in the tau binding ELISA) (human, UniProt P11142)
T1 construct: heat shock cognate protein of 70 kDa (hsc70), human; 1 mM ADP was present in the ELISA
Experiment: ELISA; 1 µM human hsc70 immobilised on 96-well plates; tau in binding buffer at pH 8 (25 mM Tris), also pH 6 (MES) and pH 7.4 (HEPES), 1 mM ADP, 3 h at RT; detected with anti-tau
Conditions: both partners purified

T1 sequence (P11142 whole entry): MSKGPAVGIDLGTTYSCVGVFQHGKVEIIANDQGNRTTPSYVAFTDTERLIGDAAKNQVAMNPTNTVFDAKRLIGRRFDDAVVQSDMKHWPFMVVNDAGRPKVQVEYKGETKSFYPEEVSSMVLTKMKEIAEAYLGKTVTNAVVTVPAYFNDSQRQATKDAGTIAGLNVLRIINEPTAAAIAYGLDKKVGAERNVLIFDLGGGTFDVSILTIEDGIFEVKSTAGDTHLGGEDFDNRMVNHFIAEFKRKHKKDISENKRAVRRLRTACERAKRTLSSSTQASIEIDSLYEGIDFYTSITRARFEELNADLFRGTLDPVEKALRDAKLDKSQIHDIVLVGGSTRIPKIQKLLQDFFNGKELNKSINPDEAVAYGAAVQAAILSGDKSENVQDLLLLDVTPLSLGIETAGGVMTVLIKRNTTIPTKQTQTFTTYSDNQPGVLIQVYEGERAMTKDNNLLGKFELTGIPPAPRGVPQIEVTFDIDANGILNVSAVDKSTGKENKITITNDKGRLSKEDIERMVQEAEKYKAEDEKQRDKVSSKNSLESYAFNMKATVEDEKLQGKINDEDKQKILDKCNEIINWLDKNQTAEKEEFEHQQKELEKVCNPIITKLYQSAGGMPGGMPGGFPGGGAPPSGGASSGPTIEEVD

B1: 4R0N tau (natural protein)
chain: not shown
notes: also called WT tau; unmodified tau
B1: binds.
